# Measurements published in paper PMC4336329 (PLoS ONE, 2015).
# Screen size: about 310,000 compounds; about 14,000 (4.5%) showed an effect of 50% or more. The effect is printed as a negative number. The list shows a part of the results.
# Target: human ether-à-go-go-related gene (hERG) potassium channel (human, UniProt Q12809)
# Experiment: primary screen, population patch clamp on CHO cells stably expressing hERG
# 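Further: peak tail current of the secondary pulse compared with the same well before compound.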
# human ether-à-go-go-related gene (hERG) potassium channel, sequence (Q12809 whole entry, looked up): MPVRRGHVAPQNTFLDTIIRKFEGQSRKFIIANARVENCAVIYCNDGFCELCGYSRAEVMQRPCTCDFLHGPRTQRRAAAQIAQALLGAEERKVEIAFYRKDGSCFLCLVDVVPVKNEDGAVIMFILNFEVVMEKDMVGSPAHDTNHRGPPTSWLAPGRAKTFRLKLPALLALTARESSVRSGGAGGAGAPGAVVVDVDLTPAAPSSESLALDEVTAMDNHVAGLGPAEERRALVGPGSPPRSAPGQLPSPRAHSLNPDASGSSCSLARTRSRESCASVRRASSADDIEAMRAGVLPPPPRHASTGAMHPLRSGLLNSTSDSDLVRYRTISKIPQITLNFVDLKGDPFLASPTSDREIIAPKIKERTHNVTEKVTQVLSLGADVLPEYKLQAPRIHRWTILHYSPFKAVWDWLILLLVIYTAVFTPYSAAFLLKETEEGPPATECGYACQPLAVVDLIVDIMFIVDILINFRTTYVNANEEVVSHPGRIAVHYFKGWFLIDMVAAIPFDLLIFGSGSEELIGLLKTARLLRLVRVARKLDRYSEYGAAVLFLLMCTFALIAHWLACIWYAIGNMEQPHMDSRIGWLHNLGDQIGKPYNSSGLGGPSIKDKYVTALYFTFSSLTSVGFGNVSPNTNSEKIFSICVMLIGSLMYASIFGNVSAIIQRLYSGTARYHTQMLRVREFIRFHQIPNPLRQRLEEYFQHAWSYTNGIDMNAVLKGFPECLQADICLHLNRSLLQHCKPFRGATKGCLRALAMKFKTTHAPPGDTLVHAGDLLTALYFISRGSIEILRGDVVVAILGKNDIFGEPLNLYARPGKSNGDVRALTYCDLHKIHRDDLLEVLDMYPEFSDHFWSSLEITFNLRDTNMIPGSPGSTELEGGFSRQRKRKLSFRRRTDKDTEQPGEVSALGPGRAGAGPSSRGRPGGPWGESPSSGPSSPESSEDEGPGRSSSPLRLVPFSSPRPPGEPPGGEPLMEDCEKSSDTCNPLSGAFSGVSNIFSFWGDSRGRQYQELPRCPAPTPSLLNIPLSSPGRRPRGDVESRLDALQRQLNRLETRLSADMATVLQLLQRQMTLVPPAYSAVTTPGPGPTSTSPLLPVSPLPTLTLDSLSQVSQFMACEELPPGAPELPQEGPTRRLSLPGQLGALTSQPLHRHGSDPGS
row,Compound,"hERG current change (%, negative = inhibition) at 10uM [%]"
1,Cl.O=C(Nc1ncccc1Cl)C1COc2ccccc2O1 (stereo not shown),-15.2
2,COc1ccc(OC)c(NC(=S)N2CCC(C(O)(c3ccccc3)c3ccccc3)CC2)c1,-3.48
3,CC(NC(=O)C1CCCC1)c1ccc2c(c1)OCCO2 (stereo not shown),-11.3
4,O=C(Nc1cc(S(=O)(=O)Nc2ccc(Cl)cc2)ccc1N1CCCCC1)c1ccc(F)cc1,8.86
5,COc1ccc(C(=O)Nc2ccc(C(=O)Nc3nccs3)cc2)cc1[N+](=O)[O-],6.33
6,Cc1c(NC(=O)CN2C(=O)NC(C)(c3ccc(OC(F)F)cc3)C2=O)c(=O)n(-c2ccccc2)n1C (stereo not shown),20
7,Cc1cc(C)c(S(=O)(=O)N2CCOC2CNC(=O)C(=O)NCc2ccncc2)c(C)c1 (stereo not shown),21
8,CCC1C(=NO)C(CC)C(c2ccccc2)NC1c1ccccc1 (stereo not shown),4.66
9,CCOC(=O)CNC(=O)CNC(=O)Cn1ccc2ccccc2c1=O,9.64
10,CCOC(=O)c1c(NC(=O)CSc2c[nH]c3ccccc23)sc2c1CCC2,14.6
11,CCC(=O)Nc1nc2ccc([N+](=O)[O-])cc2s1,9.55
12,CC1=CC(=O)C=CC1(C)C(Cl)(Cl)Cl (stereo not shown),-4.19
13,C=CCn1c(CNC(=O)c2cccs2)nnc1SCC(=O)Nc1ccc(C(=O)O)cc1,11.5
14,CCC(C)Nc1nc(N)c([N+](=O)[O-])c(NCCO)n1 (stereo not shown),3.86
15,CC(c1nccs1)N(C)C(=O)CCc1nnc(CCc2ccccc2)o1 (stereo not shown),0.72
16,CCOC(=O)N1CCC(NC(=O)CS(=O)Cc2nc(-c3ccc(C)cc3)oc2C)CC1 (stereo not shown),-2.4
17,COc1ccc(CN=Nc2cc(C)nc(NS(=O)(=O)c3ccccc3Cl)n2)cc1,15.8
18,Cc1ccc(CCCOC(=O)C[N+]2(C)CCOCC2)cc1.[I-],5.11
19,COc1cc(/C=N/Nc2nc(N3CCCCC3)nc(N3CCCCC3)n2)ccc1OC(=O)c1ccco1,8.29
20,Cc1ccc(-c2nnc(SCC(=O)NC3CC3)o2)cc1,-7.55
21,CCCCCOc1ccc(NC2=CC(=O)CCC2)cc1,-12.6
22,O=C(Cc1c(F)cccc1Cl)NC1CCN(Cc2ccccc2)CC1,-0.715
23,Cc1cc(NS(=O)(=O)c2ccc(NC(=O)CCCOc3ccccc3C)cc2)nc(C)n1,12.2
24,CCN(CC)C(=N)/C(C#N)=N/Nc1ccccc1,-15.7
25,O=C(NCCN1CCOCC1)NC1(C(F)(F)F)Oc2ccccc2O1,-3.53
26,Cc1cccc(NC(=O)Nc2nnc(N3CCCCC3C)s2)c1C (stereo not shown),15.8
27,CCOC(=O)C1(Cc2ccc(Cl)cc2)CCN(Cc2cn(CC)nc2C)CC1,-67.7
28,CCS(=O)(=O)c1nc2ccccc2n1Cc1ccccc1Cl,-8.8

row,Compound,"hERG current change (%, negative = inhibition) at 10uM [%]"
1,CC(OC(=O)CCc1ccccc1)C(=O)Nc1ncc(Cl)cc1Cl (stereo not shown),4.35
2,Cc1nn(-c2ccc([N+](=O)[O-])cc2)c2c1C(c1ccc(OC(F)F)cc1)N1C(=N2)C(=O)Nc2ccccc21 (stereo not shown),-4.16
3,O=C(NCc1ccc2c(c1)OCO2)c1cccc([N+](=O)[O-])c1,-15.8
4,CC(Oc1ncnc2ccccc12)C(=O)Nc1cccc(S(=O)(=O)N2CCOCC2)c1 (stereo not shown),-11.3
5,O=S(=O)(NCCCN1CCOCC1)c1ccc2c(c1)OCCO2,24.4
6,CCN(CC)S(=O)(=O)c1ccc(OC)c(NS(=O)(=O)c2cccc(C(=O)O)c2)c1,11.3
7,COc1cccc(/C=C/C(=O)Nc2cccc(C(C)=O)c2)c1OC,19.5
8,Cc1nn(C)cc1CNC(=O)c1cnn2c1NC(c1ccc(Br)cc1)CC2C(F)(F)F (stereo not shown),-20.3
9,COc1ccc(Cn2c(-c3ccc(OC)cc3)nc3c(c(=O)c4ccccc4n3C)c2=O)cc1,-11.4
10,COc1cc(OC)c(C2C(C#N)=C(N)Oc3cc(C)n(CCCN4CCOCC4)c(=O)c32)cc1OC (stereo not shown),-4.15
11,Cc1cc(=O)n2[nH]c(COc3ccccc3)nc2n1,-4.43
12,COc1ccc(CNC(=O)CSc2nnnn2-c2ccc(O)cc2)cc1,-11.2
13,COc1ccc(CCNC(=O)CSc2nn(-c3ccccc3)c(=S)s2)cc1OC,-16.5
14,O=C(NCc1nc2ccccc2[nH]1)C1=C[C@@H](c2ccc(Br)cc2)C[C@@H](OCCCCO)O1,-65.9
15,CCCOC(=O)C1[C@H]2C(=O)N(CC3CCCO3)C[C@]23C=C[C@H]1O3 (stereo partly shown),7.13
16,CC[N+](C)(C)CCN(Cc1ccc(Cl)cc1)c1ccccn1.[Br-],-68.6
17,CC1=N/C(=C\c2ccccc2Cl)C(=O)O1,15
18,Cc1cc(O)c(C(C)C)cc1NC(=O)c1ccc(Cl)cc1,-0.0659
19,COc1cc2c(cc1O)[C@@H]1Cc3cc(O)c(OC)cc3[C@H](C2)N1C,11.3
20,CCOC(=O)C(=Cc1c[nH]c2ccc(S(=O)(=O)N(C)C)cc12)C(=O)OCC,-25.3
21,CCOC(=O)/C(C#N)=C\C=C1C=CN(C)C=C1,0.0919
22,CC1Cc2nc(SCC(N)=O)n(Cc3ccccc3)c(=O)c2S1 (stereo not shown),-4.75
23,COc1ccc(C2C(C(=O)c3ccccc3)=C(C)Nc3nc4ccccc4n32)cc1OC (stereo not shown),-3.25
24,COc1cccc(Oc2nc(-c3ccccc3O)nc3ccccc23)c1,7.57
25,NC(=O)NC(Cc1ccccc1)C(=O)NCCCSc1ccccc1 (stereo not shown),5.04
26,CS(=O)(=O)Nc1nnc(C2CCCC2)s1,24
27,CN(CC(=O)NCc1ccco1)S(=O)(=O)c1cccc2cccnc12,-1.47
